Experimental findings from PMC6212790 are described below.

The other results are listed elsewhere or left out. At the low end of the ranking the order means little.

The target of this test is T1, GST-Rok (full length) (UniProt O34857).
T1 sequence: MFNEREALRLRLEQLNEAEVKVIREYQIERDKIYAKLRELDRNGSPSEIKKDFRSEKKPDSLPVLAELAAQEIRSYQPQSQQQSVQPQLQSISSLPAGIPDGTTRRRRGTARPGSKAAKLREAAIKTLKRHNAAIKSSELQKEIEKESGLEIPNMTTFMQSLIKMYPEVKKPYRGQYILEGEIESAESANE
The test is described as follows: protein binding microarray.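 Also: rank score from −0.5 (least bound) to 0.5 (best bound).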 The note with it: Rok is a gene silencer of Bacillus subtilis; high values mean tight binding; most listed sequences are background and not binding sites; double strand, one strand shown.
Consider CGCTTCCG, for which the binding signal is -0.196 E-score. Sequence CTTTGCCA displayed a binding signal of -0.232 E-score. On to AGGCGGAG, for which the binding signal is -0.286 E-score. Sequence CTGACTAC came in with a binding signal of 0.1 E-score. For TGATGTAA, the binding signal came to 0.134 E-score. Turning to TAGGACTA, the binding signal was determined as 0.0703 E-score. Under AGGAACGG stands -0.278 E-score; under CATTTCCA, 0.0507 E-score. Consider CCTCTCAC, for which the binding signal is -0.164 E-score. Consider GAAGGAGC, for which the binding signal was -0.24 E-score. CGATAACC registered a binding signal of -0.0695 E-score. On to CGTTTGCA, for which the binding signal is -0.174 E-score. ATCCAACG yielded a binding signal of -0.0422 E-score. Turning to CGCTAACG, the binding signal was found to be 0.0283 E-score.

The sequence TCACAAGA had a binding signal of -0.166 E-score. On to AAGATCGA, for which the binding signal worked out at 0.119 E-score. As to CAAGAGGC, the binding signal is -0.306 E-score.

In turn, GTACTGCA had a binding signal of 0.198 E-score. As for ATGTGGCG, the figure is -0.0322 E-score; as for TACATCCA, 0.248 E-score. With GAACGAAA, the binding signal was -0.0952 E-score.

As to AGGGTGGA, the binding signal was -0.354 E-score.

Regarding CGAATGAG, the binding signal was 0.0153 E-score. As for ACTCACAC, the figure is 0.0343 E-score; as for ACTGTACT, 0.209 E-score. As for GCTCCTCA, the figure is -0.235 E-score; as for CCATGTTA, 0.123 E-score.

GAGTTCTA showed a binding signal of 0.169 E-score. The sequence GCTACGCA registered a binding signal of -0.225 E-score.

The sequence AGTCTGTA showed a binding signal of 0.118 E-score. In turn, GAGGGCCC registered a binding signal of -0.441 E-score. Under CGCTATGC stands -0.151 E-score; under GCCAGTCA, -0.0452 E-score; under CACCTGTC, -0.192 E-score. Take GATGAACC: the binding signal is -0.136 E-score. With ACATCCCA, the binding signal is -0.0483 E-score. As for CCATTACA, the figure is 0.0924 E-score.

In the case of ACGATACA, the binding signal was found to be 0.175 E-score.

In the case of CTGAGAAC, the binding signal was -0.0521 E-score.

As to ATGCTAAT, the binding signal is 0.184 E-score. On to ATGTGTTG, for which the binding signal worked out at 0.111 E-score.

In the case of CATCGTTA, the binding signal worked out at 0.161 E-score. As to AGGCTCTG, the binding signal was -0.157 E-score. As for CGCCGTAA, the figure is -0.148 E-score; as for CGCAGCAG, -0.129 E-score. As for ACTCAGTG, the figure is -0.0539 E-score; as for ACACACAA, -0.072 E-score; as for GATCCCAC, -0.142 E-score.

Take CGGCTCAA: the binding signal was -0.239 E-score. Sequence AACAGGAA returned a binding signal of -0.0538 E-score. As for ACATCCAG, the figure is 0.088 E-score; as for ACGCTTTG, -0.209 E-score.

Sequence ATTGCTCC showed a binding signal of 0.0337 E-score.

In the case of CCAGTTCG, the binding signal was -0.204 E-score.

In the case of ATGATATC, the binding signal was found to be 0.173 E-score. Turning to AGCTAAGA, the binding signal amounted to 0.0579 E-score. On to CAATACAA, for which the binding signal amounted to 0.114 E-score. ATTCCTGC: the binding signal was 0.154 E-score.

Consider ACGAACGG, for which the binding signal was -0.178 E-score. Under CGGCACAG stands -0.105 E-score; under AATGAATT, 0.29 E-score. The sequence CTCTGAAA gave a binding signal of 0.0893 E-score.

GACGGCAC had a binding signal of -0.177 E-score. As for GGGGTCGA, the binding signal is -0.314 E-score. In turn, CATGGTAG displayed a binding signal of 0.168 E-score. Sequence GCTAAGGA gave a binding signal of -0.181 E-score. Turning to GATCGCTA, the binding signal was determined as 0.00886 E-score. AGTCAGCG returned a binding signal of 0.00834 E-score.

CCTATCAC returned a binding signal of 0.0828 E-score.

CTAAGAGA: the binding signal was -0.0737 E-score. Turning to AATCTGAC, the binding signal is -0.0954 E-score. CGAACCCG: the binding signal was -0.099 E-score. AACGTGGC had a binding signal of -0.156 E-score. The sequence CATGTACC returned a binding signal of 0.219 E-score.

AAGCCCGA showed a binding signal of -0.21 E-score. Consider GCAGAAGC, for which the binding signal was -0.214 E-score. Consider GCCTAGGA, for which the binding signal is -0.0449 E-score. GCCGAGCA returned a binding signal of -0.318 E-score.

AATGAGCT: the binding signal is -0.107 E-score.

On to CCCATTCC, for which the binding signal is -0.204 E-score. For the sequence CAGAGCAG, the binding signal was -0.273 E-score. Consider AACAGAAG, for which the binding signal was found to be 0.0183 E-score.

As to CCCTGTTC, the binding signal is -0.371 E-score. CAACACCG had a binding signal of -0.0948 E-score. As for AGTCTGCC, the binding signal is -0.265 E-score. Under CGTAGACC stands -0.2 E-score. TAAACGGA displayed a binding signal of 0.0186 E-score.

Take AACACCAG: the binding signal is -0.0704 E-score. Under GCCGCACC stands -0.268 E-score. With TCTTGCAA, the binding signal came out at 0.108 E-score.

As to GTAGCGAC, the binding signal was found to be 0.183 E-score. Consider AGGGCGCC, for which the binding signal is -0.186 E-score. In the case of AAACGAAT, the binding signal was found to be 0.212 E-score. GCTCAAAA: the binding signal was -0.148 E-score. As to CAAGGACA, the binding signal is -0.196 E-score. The sequence CGAGCCGC had a binding signal of -0.156 E-score. The sequence AGACTGAT yielded a binding signal of -0.0117 E-score. AGGGCGAG gave a binding signal of -0.187 E-score. Sequence AACATAAA yielded a binding signal of 0.0213 E-score.

In turn, GCGCGTTA came in with a binding signal of 0.0823 E-score. CTGCCCGC: the binding signal was -0.258 E-score. As for CTGGAGTA, the figure is 0.0135 E-score; as for CCATCTCG, -0.0837 E-score. As to ATATTCTG, the binding signal was found to be 0.214 E-score. Under TCCGAGAA stands -0.0164 E-score; under AGACTTCG, -0.15 E-score; under ACCTTCGA, 0.00802 E-score. For AACATGAT, the binding signal turned out to be 0.181 E-score.

In the case of GCCCCACC, the binding signal is -0.364 E-score. On to CAGGAGGA, for which the binding signal was -0.19 E-score.

Consider GGTAACAA, for which the binding signal was found to be 0.126 E-score.

Regarding ATCAGGGG, the binding signal is -0.142 E-score. Sequence AATGTTCC returned a binding signal of -0.104 E-score. With AGATATTA, the binding signal is 0.404 E-score.

Regarding GTTGGACA, the binding signal was -0.242 E-score. As for GGCGTGCA, the figure is -0.208 E-score; as for CGTCCGAC, -0.166 E-score; as for AGGCCATG, -0.266 E-score. Under ATTTTCTG stands -0.139 E-score; under GTCATATA, 0.291 E-score; under GACCCTAC, -0.165 E-score. In turn, ATGAGTCC displayed a binding signal of -0.167 E-score.

Sequence CTACCAAG displayed a binding signal of -0.0129 E-score. Sequence AGGAGGTC yielded a binding signal of -0.306 E-score. ACCTGTTA came in with a binding signal of 0.0535 E-score. Under AACCACGA stands 0.0386 E-score; under GATACTGC, 0.0147 E-score. Sequence AGCGCACA registered a binding signal of -0.0985 E-score. As for CTTCGAGA, the figure is -0.0995 E-score; as for CATCGGAG, -0.27 E-score; as for GCACAGCC, -0.267 E-score. With GGGGCTTA, the binding signal was -0.298 E-score. Sequence CTTCATAC registered a binding signal of 0.0169 E-score. As for CTTTTCGA, the figure is 0.119 E-score; as for ATTCGGGC, -0.08 E-score; as for ATTCAGAC, -0.145 E-score. As for TCAATCCA, the binding signal was -0.0971 E-score. Under CTCAATTC stands 0.0663 E-score; under GACCCGAA, -0.305 E-score; under CGGCTACG, -0.221 E-score.

In the case of CGACAACC, the binding signal is -0.0599 E-score. As for ACTATTCT, the binding signal was 0.125 E-score. Take ATGAAACA: the binding signal turned out to be 0.15 E-score. The sequence ATCTTCAA yielded a binding signal of 0.086 E-score. With CTTTGTGA, the binding signal was -0.139 E-score. As for ACGCTGTA, the figure is -0.022 E-score. On to AAGGCAGG, for which the binding signal is -0.327 E-score. Turning to ATTGTCCG, the binding signal was -0.0725 E-score. As for AACCTATT, the figure is 0.19 E-score; as for AATCATTA, 0.158 E-score. As for AAGTTAAG, the binding signal is -0.0839 E-score.

With GTCCTAAA, the binding signal was -0.0236 E-score.

For the sequence AAGGCAAG, the binding signal is -0.321 E-score. For CAGTTCTC, the binding signal was found to be 0.00617 E-score.

In turn, ATATACTG gave a binding signal of 0.391 E-score.

Regarding ACCGTCAA, the binding signal was -0.131 E-score. Under ATCCGTCG stands 0.0223 E-score; under TCGGTCCA, -0.102 E-score. As for CAAACTCA, the figure is -0.00762 E-score; as for CGGACAAA, -0.0713 E-score; as for CCCATCCG, -0.159 E-score. In turn, TGCGGACA came in with a binding signal of -0.0891 E-score. Consider CCGATAAC, for which the binding signal was determined as 0.117 E-score.

GCGTGGAA came in with a binding signal of -0.175 E-score. As to CGAATGTC, the binding signal was -0.0683 E-score. Under AAGCTGAA stands -0.00415 E-score; under CGATGTAC, 0.172 E-score; under CTAATAGA, 0.0426 E-score. Consider ATGTAGTA, for which the binding signal is 0.403 E-score. Consider GAGCGCTC, for which the binding signal is -0.0989 E-score. Under AGTAACCA stands 0.231 E-score; under CTACGCAA, -0.0862 E-score.
